Assay results from the supplement of paper PMC8728848.
The other results are listed elsewhere or left out.

Columns and labels:
Assay in all cases: glycan array binding signal (z-score within array); higher = stronger binding
Settings in all cases: glycan notation: IUPAC condensed, linker removed
GalNAc(b1-3)GalNAc = molecular target: GalNAc(b1-3)GalNAc
Method in brief: (§1)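 Negative Z-scores can be read as non-binding. The Z-score is calculated within each array and then averaged across arrays of one protein sequence at different concentrations or buffers and across linkers. Arrays, 3228 in all, were curated from the Consortium for Functional Glycomics database and kept only where the protein sequence was available.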

GalNAc(b1-4)GlcNAc = molecular target: GalNAc(b1-4)GlcNAc
Method in brief: as §1

Glc(a1-4)Glc = molecular target: Glc(a1-4)Glc
Method in brief: as §1

Glc(a1-6)Glc(a1-6)Glc = molecular target: Glc(a1-6)Glc(a1-6)Glc
Method in brief: as §1

Glc(b1-4)Glc = molecular target: Glc(b1-4)Glc
Method in brief: as §1

Glc(b1-6)Glc = molecular target: Glc(b1-6)Glc
Method in brief: as §1

GlcA(b1-3)Gal = molecular target: GlcA(b1-3)Gal
Method in brief: as §1

GlcA(b1-3)GlcNAc = molecular target: GlcA(b1-3)GlcNAc
Method in brief: as §1

GlcA(b1-6)Gal = molecular target: GlcA(b1-6)Gal
Method in brief: as §1

[1] = molecular target: GlcNAc(a1-3)Gal(b1-4)GlcNAc
Method in brief: as §1

[2] = molecular target: GlcNAc(a1-6)Gal(b1-4)GlcNAc
Method in brief: as §1

[3] = molecular target: GlcNAc(b1-2)Gal(b1-3)GalNAc
Method in brief: as §1

[4] = molecular target: GlcNAc(b1-2)Man(a1-3)[GlcNAc(b1-2)Man(a1-6)]Man(b1-4)GlcNAc(b1-4)GlcNAc
Method in brief: as §1

GlcNAc(b1-3)Gal = molecular target: GlcNAc(b1-3)Gal
Method in brief: as §1

[5] = molecular target: GlcNAc(b1-3)Gal(b1-3)GalNAc
Method in brief: as §1

GlcNAc(b1-3)Gal(b1-4)Glc = molecular target: GlcNAc(b1-3)Gal(b1-4)Glc
Method in brief: as §1

[6] = molecular target: GlcNAc(b1-3)Gal(b1-4)GlcNAc
Method in brief: as §1

[7] = molecular target: GlcNAc(b1-3)Gal(b1-4)GlcNAc(b1-3)Gal(b1-4)GlcNAc
Method in brief: as §1

GlcNAc(b1-3)GalNAc = molecular target: GlcNAc(b1-3)GalNAc
Method in brief: as §1

GlcNAc(b1-3)Man = molecular target: GlcNAc(b1-3)Man
Method in brief: as §1

[8] = molecular target: GlcNAc(b1-3)[GlcNAc(b1-4)][GlcNAc(b1-6)]GlcNAc
Method in brief: as §1

[9] = molecular target: GlcNAc(b1-3)[GlcNAc(b1-6)]Gal(b1-4)GlcNAc
Method in brief: as §1

[10] = molecular target: GlcNAc(b1-3)[GlcNAc(b1-6)]GalNAc
Method in brief: as §1

[11] = molecular target: GlcNAc(b1-4)Gal(b1-4)GlcNAc
Method in brief: as §1

GlcNAc(b1-4)GlcNAc = molecular target: GlcNAc(b1-4)GlcNAc
Method in brief: as §1

[12] = molecular target: GlcNAc(b1-4)GlcNAc(b1-4)GlcNAc
Method in brief: as §1

[13] = molecular target: GlcNAc(b1-4)GlcNAc(b1-4)GlcNAc(b1-4)GlcNAc(b1-4)GlcNAc
Method in brief: as §1

[14] = molecular target: GlcNAc(b1-4)GlcNAc(b1-4)GlcNAc(b1-4)GlcNAc(b1-4)GlcNAc(b1-4)GlcNAc
Method in brief: as §1

[15] = molecular target: GlcNAc(b1-4)[GlcNAc(b1-6)]GalNAc
Method in brief: as §1

[16] = molecular target: GlcNAc(b1-6)Gal(b1-4)GlcNAc
Method in brief: as §1

GlcNAc(b1-6)GalNAc = molecular target: GlcNAc(b1-6)GalNAc
Method in brief: as §1

GlcNAc3Prop(b1-4)GlcNAc = molecular target: GlcNAc3Prop(b1-4)GlcNAc
Method in brief: as §1

Kdn(a2-3)Gal(b1-3)GlcNAc = molecular target: Kdn(a2-3)Gal(b1-3)GlcNAc
Method in brief: as §1

Kdn(a2-3)Gal(b1-4)GlcNAc = molecular target: Kdn(a2-3)Gal(b1-4)GlcNAc
Method in brief: as §1

[17] = molecular target: Man(a1-2)Man(a1-2)Man(a1-3)Man
Method in brief: as §1

[18] = molecular target: Man(a1-2)Man(a1-2)Man(a1-6)[Man(a1-3)]Man
Method in brief: as §1

Man(a1-2)Man(a1-3)Man = molecular target: Man(a1-2)Man(a1-3)Man
Method in brief: as §1

[19] = molecular target: Man(a1-2)Man(a1-3)[Man(a1-2)Man(a1-6)]Man
Method in brief: as §1

[20] = molecular target: Man(a1-2)Man(a1-3)[Man(a1-2)Man(a1-6)]Man(a1-6)[Man(a1-2)Man(a1-2)Man(a1-3)]Man
Method in brief: as §1

[21] = molecular target: Man(a1-2)Man(a1-3)[Man(a1-2)Man(a1-6)]Man(a1-6)[Man(a1-2)Man(a1-2)Man(a1-3)]Man(b1-4)GlcNAc(b1-4)GlcNAc
Method in brief: as §1

[22] = molecular target: Man(a1-2)Man(a1-3)[Man(a1-6)]Man(a1-6)[Man(a1-2)Man(a1-3)]Man(b1-4)GlcNAc(b1-4)GlcNAc
Method in brief: as §1

[23] = molecular target: Man(a1-2)Man(a1-6)[Man(a1-3)]Man(a1-6)[Man(a1-2)Man(a1-2)Man(a1-3)]Man
Method in brief: as §1

[24] = molecular target: Man(a1-2)Man(a1-6)[Man(a1-3)]Man(a1-6)[Man(a1-2)Man(a1-2)Man(a1-3)]Man(b1-4)GlcNAc(b1-4)GlcNAc
Method in brief: as §1

Man(a1-3)[Man(a1-6)]Man = molecular target: Man(a1-3)[Man(a1-6)]Man
Method in brief: as §1

[25] = molecular target: Man(a1-3)[Man(a1-6)]Man(a1-6)[Man(a1-2)Man(a1-3)]Man(b1-4)GlcNAc(b1-4)GlcNAc
Method in brief: as §1

[26] = molecular target: Man(a1-3)[Man(a1-6)]Man(a1-6)[Man(a1-3)]Man
Method in brief: as §1

[27] = molecular target: Man(a1-3)[Man(a1-6)]Man(a1-6)[Man(a1-3)]Man(b1-4)GlcNAc(b1-4)GlcNAc
Method in brief: as §1

[28] = molecular target: Man(a1-3)[Man(a1-6)]Man(b1-4)GlcNAc(b1-4)GlcNAc
Method in brief: as §1

Man(a1-6)Man = molecular target: Man(a1-6)Man
Method in brief: as §1

Man(b1-4)GlcNAc = molecular target: Man(b1-4)GlcNAc
Method in brief: as §1

Neu5Ac(a2-3)Gal = molecular target: Neu5Ac(a2-3)Gal
Method in brief: as §1

[29] = molecular target: Neu5Ac(a2-3)Gal(b1-3)GalNAc
Method in brief: as §1

[30] = molecular target: Neu5Ac(a2-3)Gal(b1-3)GalNAc(b1-3)Gal(a1-4)Gal(b1-4)Glc
Method in brief: as §1

[31] = molecular target: Neu5Ac(a2-3)Gal(b1-3)GalNAc(b1-3)Gal(b1-4)GlcNAc
Method in brief: as §1

[32] = molecular target: Neu5Ac(a2-3)Gal(b1-3)GalNAc(b1-4)[Neu5Ac(a2-3)]Gal(b1-4)Glc
Method in brief: as §1

[33] = molecular target: Neu5Ac(a2-3)Gal(b1-3)GalNAc6S
Method in brief: as §1

[34] = molecular target: Neu5Ac(a2-3)Gal(b1-3)GlcNAc
Method in brief: as §1

[35] = molecular target: Neu5Ac(a2-3)Gal(b1-3)GlcNAc(b1-3)Gal(b1-3)GlcNAc
Method in brief: as §1

[36] = molecular target: Neu5Ac(a2-3)Gal(b1-3)GlcNAc6S
Method in brief: as §1

B1: Angptl4 (Homo sapiens), Q9BY76 (protein)
chain: MSGAPTAGAALMLCAATAVLLSAQGGPVQSKSPRFASWDEMNVLAHGLLQLGQGLREHAERTRSQLSALERRLSACGSACQGTEGSTDLPLAPESRVDPEVLHSLQTQLKAQNSRIQQLFHKVAQQQRHLEKQHLRIQHLQSQFGLLDHKHLDHEVAKPARRKRLPEMAQPVDPAHNVSRLHRLPRDCQELFQVGERQSGLFEIQPQGSPPFLVNCKMTSDGGWTVIQRRHDGSVDFNRPWEAYKAGFGDPHGEFWLGLEKVHSITGDRNSRLAVQLRDWDGNAELLQFSVHLGGEDTAYSLQLTAPVAGQLGATTVPPSGLSVPFSTWDQDHDLRRDKNCAKSLSGGWWFGTCSHSNLNGQYFRSIPQQRQKLKKGIFWKTWRGRYYPLQATTMLIQPMAAEAAS
glycan array binding signal (z-score) (GalNAc(b1-3)GalNAc): 1.04
glycan array binding signal (z-score) (GalNAc(b1-4)GlcNAc): -0.398
glycan array binding signal (z-score) (Glc(a1-4)Glc): -0.014
glycan array binding signal (z-score) (Glc(a1-6)Glc(a1-6)Glc): -0.589
glycan array binding signal (z-score) (Glc(b1-4)Glc): -0.685
glycan array binding signal (z-score) (Glc(b1-6)Glc): 0.796
glycan array binding signal (z-score) (GlcA(b1-3)Gal): 0.445
glycan array binding signal (z-score) (GlcA(b1-3)GlcNAc): 0.314
glycan array binding signal (z-score) (GlcA(b1-6)Gal): 0.139
glycan array binding signal (z-score) [1]: -0.425
glycan array binding signal (z-score) [2]: -0.397
glycan array binding signal (z-score) [3]: -0.021
glycan array binding signal (z-score) [4]: -0.215
glycan array binding signal (z-score) (GlcNAc(b1-3)Gal): 0.068
glycan array binding signal (z-score) [5]: -0.42
glycan array binding signal (z-score) (GlcNAc(b1-3)Gal(b1-4)Glc): 2.64
glycan array binding signal (z-score) [6]: -0.299
glycan array binding signal (z-score) [7]: 0.334
glycan array binding signal (z-score) (GlcNAc(b1-3)GalNAc): -0.508
glycan array binding signal (z-score) (GlcNAc(b1-3)Man): -0.415
glycan array binding signal (z-score) [8]: -0.234
glycan array binding signal (z-score) [9]: 0.501
glycan array binding signal (z-score) [10]: -0.268
glycan array binding signal (z-score) [11]: -0.264
glycan array binding signal (z-score) (GlcNAc(b1-4)GlcNAc): -0.525
glycan array binding signal (z-score) [12]: -0.25
glycan array binding signal (z-score) [13]: 2.2
glycan array binding signal (z-score) [14]: 1.43
glycan array binding signal (z-score) [15]: -0.311
glycan array binding signal (z-score) [16]: -0.277
glycan array binding signal (z-score) (GlcNAc(b1-6)GalNAc): 0.299
glycan array binding signal (z-score) (GlcNAc3Prop(b1-4)GlcNAc): -0.326
glycan array binding signal (z-score) (Kdn(a2-3)Gal(b1-3)GlcNAc): 0.691
glycan array binding signal (z-score) (Kdn(a2-3)Gal(b1-4)GlcNAc): -0.145
glycan array binding signal (z-score) [17]: -0.655
glycan array binding signal (z-score) [18]: -0.229
glycan array binding signal (z-score) (Man(a1-2)Man(a1-3)Man): -0.081
glycan array binding signal (z-score) [19]: -0.525
glycan array binding signal (z-score) [20]: -0.291
glycan array binding signal (z-score) [21]: 3
glycan array binding signal (z-score) [22]: -0.165
glycan array binding signal (z-score) [23]: 0.303
glycan array binding signal (z-score) [24]: -0.471
glycan array binding signal (z-score) (Man(a1-3)[Man(a1-6)]Man): -0.048
glycan array binding signal (z-score) [25]: 5.32
glycan array binding signal (z-score) [26]: -0.212
glycan array binding signal (z-score) [27]: 0.001
glycan array binding signal (z-score) [28]: -0.118
glycan array binding signal (z-score) (Man(a1-6)Man): 0.013
glycan array binding signal (z-score) (Man(b1-4)GlcNAc): -0.486
glycan array binding signal (z-score) (Neu5Ac(a2-3)Gal): -0.218
glycan array binding signal (z-score) [29]: -0.334
glycan array binding signal (z-score) [30]: -0.626
glycan array binding signal (z-score) [31]: 0.083
glycan array binding signal (z-score) [32]: -0.37
glycan array binding signal (z-score) [33]: -0.74
glycan array binding signal (z-score) [34]: 0.89
glycan array binding signal (z-score) [35]: -0.555
glycan array binding signal (z-score) [36]: 7.07
